# The supplement of paper PMC4604168 (melanoma cell lines)
# Some of the results follow. Repeats are few or missing, and single values can be far off.
# System: IST-MEL1
# Assay: cell count relative to DMSO control; melanoma cells; higher = more viable cells
# Conditions: library dose: low library concentration; 72 h
# 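Also: cell number obtained by counting DAPI-stained nuclei in high-throughput microscope images with image analysis software, screen run in 1,536-well plates.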
row,Compound,cell count
1,"Nc1ccn([C@@H]2O[C@H](CO)[C@@H](O)C2(F)F)c(=O)n1 [gemcitabine] + O=c1cc(-c2cccc3c2Sc2ccccc2S3)oc(N2CCOCC2)c1 [KU55933] (first compound 0.0004 µM, partner dose 1 µM)",72.8%
2,"Nc1nc(F)nc2c1ncn2[C@@H]1O[C@H](CO)[C@@H](O)[C@@H]1O [fludarabine] + Oc1cc(-c2nc(-c3ccccc3)[nH]c2-c2ccncc2)ccc1Cl [L779450] (first compound 0.2 µM, partner dose 0.2 µM)",91%
3,"Nc1ccn([C@@H]2O[C@H](CO)[C@@H](O)C2(F)F)c(=O)n1 [gemcitabine] + CCN(CC)CCCCNc1ncc2cc(-c3cc(OC)cc(OC)c3)c(NC(=O)NC(C)(C)C)nc2n1 [PD173074] (first compound 0.0004 µM, partner dose 0.1 µM)",65.1%
4,"CC(=O)O[C@@]12CO[C@@H]1C[C@H](O)[C@@]1(C)C(=O)[C@H](O)C3=C(C)[C@@H](OC(=O)[C@H](O)[C@@H](NC(=O)OC(C)(C)C)c4ccccc4)C[C@@](O)([C@@H](OC(=O)c4ccccc4)[C@H]21)C3(C)C [Docetaxel] + CCCCCCCCCCCC1=C(O)C(=O)C=C(O)C1=O [Embelin] (first compound 0.0001 µM, partner dose 1.2 µM)",73.6%
5,"Nc1nc(F)nc2c1ncn2[C@@H]1O[C@H](CO)[C@@H](O)[C@@H]1O [fludarabine] + O=c1cc(-c2cccc3c2Sc2ccccc2S3)oc(N2CCOCC2)c1 [KU55933] (first compound 0.2 µM, partner dose 1 µM)",95.4%
6,"CO[C@H]1C[C@@H]2CC[C@@H](C)[C@@](O)(O2)C(=O)C(=O)N2CCCC[C@H]2C(=O)O[C@H]([C@H](C)C[C@@H]2CC[C@@H](OCCO)[C@H](OC)C2)CC(=O)[C@H](C)/C=C(\C)[C@@H](O)[C@@H](OC)C(=O)[C@H](C)C[C@H](C)/C=C/C=C/C=C/1C [everolimus] + O=c1cc(-c2cccc3c2Sc2ccccc2S3)oc(N2CCOCC2)c1 [KU55933] (first compound 0.02 µM, partner dose 1 µM)",79.6%
7,"CC(=O)O[C@@]12CO[C@@H]1C[C@H](O)[C@@]1(C)C(=O)[C@H](O)C3=C(C)[C@@H](OC(=O)[C@H](O)[C@@H](NC(=O)OC(C)(C)C)c4ccccc4)C[C@@](O)([C@@H](OC(=O)c4ccccc4)[C@H]21)C3(C)C [Docetaxel] + COc1ccc2c(c1)CCC1C2CCC2(C)C(NCCCCCCN3C(=O)C=CC3=O)CCC12 [U73122] (first compound 0.0001 µM, partner dose 0.4 µM)",64.7%
8,"CC(=O)O[C@@]12CO[C@@H]1C[C@H](O)[C@@]1(C)C(=O)[C@H](O)C3=C(C)[C@@H](OC(=O)[C@H](O)[C@@H](NC(=O)OC(C)(C)C)c4ccccc4)C[C@@](O)([C@@H](OC(=O)c4ccccc4)[C@H]21)C3(C)C [Docetaxel] + O=C(O)C(=O)Nc1sc2c(c1C(=O)O)CCNC2 [TCS401] (first compound 0.0001 µM, partner dose 1.66667 µM)",73.3%
9,"CO[C@H]1C[C@@H]2CC[C@@H](C)[C@@](O)(O2)C(=O)C(=O)N2CCCC[C@H]2C(=O)O[C@H]([C@H](C)C[C@@H]2CC[C@@H](OCCO)[C@H](OC)C2)CC(=O)[C@H](C)/C=C(\C)[C@@H](O)[C@@H](OC)C(=O)[C@H](C)C[C@H](C)/C=C/C=C/C=C/1C [everolimus] + c1cc(-c2cnn3cc(-c4ccc(OCCN5CCCCC5)cc4)cnc23)ccn1 [Dorsomorphin] (first compound 0.02 µM, partner dose 0.4 µM)",80.8%
10,"CC(=O)c1c(C)c2cnc(Nc3ccc(N4CCNCC4)cn3)nc2n(C2CCCC2)c1=O [palbociclib] + Oc1cc(-c2nc(-c3ccccc3)[nH]c2-c2ccncc2)ccc1Cl [L779450] (first compound 0.04 µM, partner dose 0.2 µM)",84.9%
11,"Nc1ncn([C@H]2C[C@H](O)[C@@H](CO)O2)c(=O)n1 [decitabine] + O=C(Nc1ccccc1)c1cc([N+](=O)[O-])ccc1Cl [GW9662] (first compound 0.1 µM, partner dose 2 µM)",88.2%
12,"Nc1nc(F)nc2c1ncn2[C@@H]1O[C@H](CO)[C@@H](O)[C@@H]1O [fludarabine] + c1cc(-c2cnn3cc(-c4ccc(OCCN5CCCCC5)cc4)cnc23)ccn1 [Dorsomorphin] (first compound 0.2 µM, partner dose 0.4 µM)",90.2%
13,"CO[C@H]1C[C@@H]2CC[C@@H](C)[C@@](O)(O2)C(=O)C(=O)N2CCCC[C@H]2C(=O)O[C@H]([C@H](C)C[C@@H]2CC[C@@H](OCCO)[C@H](OC)C2)CC(=O)[C@H](C)/C=C(\C)[C@@H](O)[C@@H](OC)C(=O)[C@H](C)C[C@H](C)/C=C/C=C/C=C/1C [everolimus] + O=C(Nc1ccccc1)c1cc([N+](=O)[O-])ccc1Cl [GW9662] (first compound 0.02 µM, partner dose 2 µM)",90.9%
14,"CC(=O)c1c(C)c2cnc(Nc3ccc(N4CCNCC4)cn3)nc2n(C2CCCC2)c1=O [palbociclib] + COC(=O)c1sccc1S(=O)(=O)Nc1ccc(Nc2ccccc2)cc1OC [GSK0660] (first compound 0.04 µM, partner dose 1 µM)",90%
15,"CO[C@H]1C[C@@H]2CC[C@@H](C)[C@@](O)(O2)C(=O)C(=O)N2CCCC[C@H]2C(=O)O[C@H]([C@H](C)C[C@@H]2CC[C@@H](OCCO)[C@H](OC)C2)CC(=O)[C@H](C)/C=C(\C)[C@@H](O)[C@@H](OC)C(=O)[C@H](C)C[C@H](C)/C=C/C=C/C=C/1C [everolimus] + Cn1cc(/C=C2\C(=O)Nc3cccnc32)c2ccccc21 [GW441756] (first compound 0.02 µM, partner dose 0.4 µM)",88.4%
16,"CO[C@H]1C[C@@H]2CC[C@@H](C)[C@@](O)(O2)C(=O)C(=O)N2CCCC[C@H]2C(=O)O[C@H]([C@H](C)C[C@@H]2CC[C@@H](OCCO)[C@H](OC)C2)CC(=O)[C@H](C)/C=C(\C)[C@@H](O)[C@@H](OC)C(=O)[C@H](C)C[C@H](C)/C=C/C=C/C=C/1C [everolimus] + CCN(CC)CCCCNc1ncc2cc(-c3cc(OC)cc(OC)c3)c(NC(=O)NC(C)(C)C)nc2n1 [PD173074] (first compound 0.02 µM, partner dose 0.1 µM)",89.2%
17,"Nc1ccn([C@@H]2O[C@H](CO)[C@@H](O)C2(F)F)c(=O)n1 [gemcitabine] + O=C1NC(=O)/C(=C/c2ccc(-c3ccc(F)cc3O)o2)S1 [AS252424] (first compound 0.0004 µM, partner dose 1 µM)",68.4%
18,"Nc1ccn([C@@H]2O[C@H](CO)[C@@H](O)C2(F)F)c(=O)n1 [gemcitabine] + Oc1nc(-c2ccc(C(F)(F)F)cc2)nc2c1CSCC2 [XAV939] (first compound 0.0004 µM, partner dose 2 µM)",68.4%
19,"Nc1ccn([C@@H]2O[C@H](CO)[C@@H](O)C2(F)F)c(=O)n1 [gemcitabine] + O=S(=O)(c1ccccc1)N(CC(F)(F)F)c1ccc(C(O)(C(F)(F)F)C(F)(F)F)cc1 [T0901317] (first compound 0.0004 µM, partner dose 1.4 µM)",63.6%
20,"Nc1nc(F)nc2c1ncn2[C@@H]1O[C@H](CO)[C@@H](O)[C@@H]1O [fludarabine] + CCc1ccc(CCOc2ccc(CC3SC(=O)NC3=O)cc2)nc1 [pioglitazone] (first compound 0.2 µM, partner dose 2 µM)",81.7%
21,"CC(=O)c1c(C)c2cnc(Nc3ccc(N4CCNCC4)cn3)nc2n(C2CCCC2)c1=O [palbociclib] + Cc1cc([N+](=O)[O-])ccc1NS(=O)(=O)c1cc(Cl)ccc1Cl [FH535] (first compound 0.04 µM, partner dose 1 µM)",74.4%
22,"CC(=O)O[C@@]12CO[C@@H]1C[C@H](O)[C@@]1(C)C(=O)[C@H](O)C3=C(C)[C@@H](OC(=O)[C@H](O)[C@@H](NC(=O)OC(C)(C)C)c4ccccc4)C[C@@](O)([C@@H](OC(=O)c4ccccc4)[C@H]21)C3(C)C [Docetaxel] + N#Cc1c(O)c2c(-c3ccc(-c4ccccc4O)cc3)csc2[nH]c1=O [A769662] (first compound 0.0001 µM, partner dose 2 µM)",72.3%
23,"Nc1ncn([C@H]2C[C@H](O)[C@@H](CO)O2)c(=O)n1 [decitabine] + COC(=O)c1sccc1S(=O)(=O)Nc1ccc(Nc2ccccc2)cc1OC [GSK0660] (first compound 0.1 µM, partner dose 1 µM)",94%
24,"CO[C@H]1C[C@@H]2CC[C@@H](C)[C@@](O)(O2)C(=O)C(=O)N2CCCC[C@H]2C(=O)O[C@H]([C@H](C)C[C@@H]2CC[C@@H](OCCO)[C@H](OC)C2)CC(=O)[C@H](C)/C=C(\C)[C@@H](O)[C@@H](OC)C(=O)[C@H](C)C[C@H](C)/C=C/C=C/C=C/1C [everolimus] + COc1ccc2c(c1)CCC1C2CCC2(C)C(NCCCCCCN3C(=O)C=CC3=O)CCC12 [U73122] (first compound 0.02 µM, partner dose 0.4 µM)",76.3%
